About 14,000 (4.5%) of roughly 310,000 compounds showed an effect of 50% or more. The effect is printed as a negative number. This is one part of the list.
Target: human ether-à-go-go-related gene (hERG) potassium channel (human, UniProt Q12809)
Experiment: primary screen, population patch clamp on CHO cells stably expressing hERG
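Note: peak tail current of the secondary pulse compared with the same well before compound.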

Chain of human ether-à-go-go-related gene (hERG) potassium channel (Q12809 whole entry, looked up): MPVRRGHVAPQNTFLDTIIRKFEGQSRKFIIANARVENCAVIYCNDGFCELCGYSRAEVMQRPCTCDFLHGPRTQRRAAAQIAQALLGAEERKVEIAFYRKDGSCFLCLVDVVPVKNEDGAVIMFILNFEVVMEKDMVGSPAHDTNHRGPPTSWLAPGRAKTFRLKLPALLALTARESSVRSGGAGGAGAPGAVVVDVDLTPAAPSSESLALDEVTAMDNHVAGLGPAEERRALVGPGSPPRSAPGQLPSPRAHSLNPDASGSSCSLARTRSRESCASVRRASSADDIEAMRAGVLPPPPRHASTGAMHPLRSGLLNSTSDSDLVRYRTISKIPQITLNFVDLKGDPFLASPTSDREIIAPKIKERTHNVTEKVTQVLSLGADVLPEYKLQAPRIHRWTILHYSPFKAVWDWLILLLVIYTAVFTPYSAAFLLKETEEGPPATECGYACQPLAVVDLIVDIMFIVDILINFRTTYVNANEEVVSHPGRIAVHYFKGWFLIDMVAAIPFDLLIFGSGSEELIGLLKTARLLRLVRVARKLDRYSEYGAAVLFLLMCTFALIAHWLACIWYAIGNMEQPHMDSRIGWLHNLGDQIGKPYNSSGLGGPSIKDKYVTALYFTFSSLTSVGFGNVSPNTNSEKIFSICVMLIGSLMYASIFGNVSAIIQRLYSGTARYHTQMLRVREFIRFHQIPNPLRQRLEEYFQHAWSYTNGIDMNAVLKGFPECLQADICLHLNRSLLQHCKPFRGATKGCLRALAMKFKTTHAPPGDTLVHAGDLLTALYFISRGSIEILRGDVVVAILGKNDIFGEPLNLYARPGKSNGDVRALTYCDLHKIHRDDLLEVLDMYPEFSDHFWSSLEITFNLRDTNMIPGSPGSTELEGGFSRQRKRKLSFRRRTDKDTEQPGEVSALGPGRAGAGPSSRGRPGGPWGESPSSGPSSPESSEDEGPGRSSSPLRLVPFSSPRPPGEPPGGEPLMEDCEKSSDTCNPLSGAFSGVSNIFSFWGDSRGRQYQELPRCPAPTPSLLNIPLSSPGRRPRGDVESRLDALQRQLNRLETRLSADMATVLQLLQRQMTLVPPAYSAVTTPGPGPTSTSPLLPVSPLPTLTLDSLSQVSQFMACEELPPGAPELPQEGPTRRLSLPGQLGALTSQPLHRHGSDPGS

Compound	hERG current change (%, negative = inhibition) at 10uM [%]
CC1CCC(C(C)C)C(OCC[N+](C)(C)C)C1 (stereo not drawn)	4.82
Cc1ccc(-c2oc3ncnc(N)c3c2-c2ccc(C)cc2)cc1	-20.6
Cc1nc(SCC(=O)NCC2CCCO2)[nH]c(=O)c1C (stereo not drawn)	10.3
CCn1ccc(C(=O)Nc2cccc(Cl)c2)n1	32.4
O=c1c(-c2ccc(F)cc2)[n+]([O-])c2ccccc2n1OCc1ccccn1	2.08
CC1CCc2cc(F)ccc2N1C(=O)CSc1nnc2c3ccccc3n(C)c2n1 (stereo not drawn)	11
OCC[C@H]1C[C@H](O)[C@@H](O)[C@]2(CCCO2)O1	17.4
COc1cccc(NC(=O)C2CSC3(C)CCC(=O)N23)c1 (stereo not drawn)	9.18
COc1cc(NC(=O)CCCNC(=O)Cn2cnc3sc4c(c3c2=O)CCCC4)cc(OC)c1OC	29.6
CCCCN(C(=O)CCC(=O)OCC(=O)NCc1ccccc1)c1c(N)n(CCC)c(=O)[nH]c1=O	4.08
O=C(O)CCCn1cc(NC(=O)COc2ccccc2[N+](=O)[O-])cn1	18
O=C(OCc1nnc(-c2ccccc2)o1)C1CC(=O)N(CCc2ccccc2)C1 (stereo not drawn)	-31
Oc1ccccc1N1CCN(C(c2ccccc2)c2ccccc2)CC1	12.6
O=C(N[C@@H](Cc1ccccc1)C(=O)OCc1ccccc1)c1nc[nH]c1C(=O)N1CCc2ccccc2C1	3.1
COc1cccc(-c2nc(CS(=O)(=O)CC(=O)NC3CCCCC3C)c(C)o2)c1 (stereo not drawn)	-8.76
COc1cccc(/C=N/NC(=O)COc2cccc3cccnc23)c1O	0.232
Cc1ccc(C(=O)C(C(=O)/C=C/c2ccccc2)=C2SCCCS2)cc1	3.51
O=S(=O)(c1ccccc1)c1nc(-c2ccc(F)cc2)oc1N1CCOCC1	2.21
Cc1cccnc1Oc1ncccc1N	13.8
Brc1cccc2sc(N3CCN(c4ccccc4)CC3)nc12	19.7
O=C(Nc1ccc(-c2n[nH]c(=S)o2)cc1)c1ccccc1	15.6
O=S(=O)(Nc1ccc2c(c1)OCCO2)c1ccc(Br)s1	-5.95

Compound	hERG current change (%, negative = inhibition) at 10uM [%]
CCOC(=O)c1cc(-c2ccc(F)cc2)n(CC(=O)NCc2cccnc2)c1C	-8.45
Cc1ccccc1OCC(O)CN1CCN(CC(O)COc2ccccc2C)C(C)C1.O=C(O)C(=O)O (stereo not drawn)	-70.8
CCOC(=O)CNC(=O)CN1CCCN(S(=O)(=O)c2ccc(Br)s2)CC1	-47.2
COc1cccc(OC)c1OCCCN1CCOCC1	4.22
CC(=O)Nc1ccc2nc(C3CC3)n(Cc3ccc(Cl)cc3)c(=O)c2c1	4.19
Cc1c(-n2c(SCC(=O)N(C)C3CCS(=O)(=O)C3)nc3ccccc3c2=O)c(=O)n(-c2ccccc2)n1C (stereo not drawn)	16.8
COc1ccc2c(c1)c(=O)oc1cc(OCC(=O)N3CCc4ccccc4C3)ccc12	-23.5
Cc1c(C(=O)N/N=C/c2cccnc2)sc(N)c1C#N	17.2
O=C(NCc1ccco1)Nc1ccc2nsnc2c1	10.7
COc1ccc(NC2CCCN(C(=O)CSc3ccncc3)C2)cc1 (stereo not drawn)	8.33
CCCCOC(=O)n1c(SCC(=O)N(C)C)nc2ccccc21	-23.9
CC(C)(O)P(C)(=O)c1ccccc1 (stereo not drawn)	13.4
O=C(O)c1cccc(S(=O)(=O)N2CCSCC2)c1	-10.8
COCc1c(C(=O)Nc2ccc3nc(N4CCOCC4)sc3c2)oc2ccccc12	-31.2
COc1ccc(S(=O)(=O)NN(C)c2nc(C(F)(F)F)nc3ccccc23)cc1	-4.15
COc1cccc(C2NC(=O)NC(C)=C2C(=O)Nc2ccc(C)cc2)c1OC (stereo not drawn)	-6.16
COc1ccccc1NC(=S)NC1CCCCC1	7.03
CC(=O)c1cccc(NS(=O)(=O)N(C)C)c1	15.4
CC(=O)Nc1ccc(C2Nc3cc(C)c(C)cc3NC3=C2C(=O)CC(C)(C)C3)cc1 (stereo not drawn)	4.69
OCCN1CCN(c2cc(C(F)(F)F)nc3c(F)cccc23)CC1	-7.86
CCn1c(=S)sc2c(=O)n(CC(=O)Nc3cccc(Cl)c3)c(C)nc21	6.27
COc1ccc(S(=O)(=O)N2CCCCCC2)cc1NC(=O)CN(C)Cc1ccc2c(c1)OCO2	-21.6

Compound	hERG current change (%, negative = inhibition) at 10uM [%]
Cc1ccc(NC2CC(=O)N(c3cccc([N+](=O)[O-])c3)C2=O)cc1 (stereo not drawn)	9.73
CC(C)CN(C(=O)CSc1nn(-c2ccc(Cl)cc2)c(=S)s1)C1CCS(=O)(=O)C1 (stereo not drawn)	-20.1
O=C(CS(=O)(=O)Cc1ccccc1)Nc1ccc2c(c1)OCO2	9.72
O=C(NCCc1ccccc1)c1cc(-c2ccccc2)c(N2CCOCC2)s1	3.07
CC(C)(C)C(=O)Nc1cccc(-c2nc3ccccc3c(=O)o2)c1	-24.3
N/C(Cc1cccc2ccccc12)=N\OC(=O)c1ccccc1F	13.4
CC(C)(CNC(=O)c1ccc(Br)o1)N1CCOCC1	6.38
COc1ccc(C(=O)Cc2nnc(C)s2)cc1	8.47
COC(=O)c1cc2nc(-c3ccc(C)cc3)cc(C(F)(F)F)n2n1	-3.89
CC(=O)N(C)c1ccc(NC(=O)Nc2ccc(C)cc2)cc1	24.9
Cc1cc(=O)oc2cc(OC(C)C(=O)NC3CCCC3)ccc12 (stereo not drawn)	-33.4
Cc1c(C(=O)N(C)Cc2ccc(OC(F)F)cc2)oc2ccccc12	-69.9
CCC(=O)N(Cc1cc2c(C)ccc(C)c2[nH]c1=O)C1CCCCC1	-20.8
CCOc1ccc(C2OC34CCCCC3C(C#N)(C#N)C2(C#N)C(=N)O4)cc1OC (stereo not drawn)	6.43
COc1cc(OC)cc(C(=O)NC(=S)Nc2nc(-c3cc4ccccc4o3)cs2)c1	3.05
O=C(NCCSc1ccc(Br)cc1)c1ccc2nc[nH]c2c1	-13.7
COc1ccc(/C(C)=N/N=C(\C)c2ccc(OC)cc2OC)c(OC)c1	-8.16
COc1ccc2c(c1)OC[C@H]1[C@H]2N2C(=O)CN(Cc3ccc(C)cc3)C(=O)[C@@]2(C)[C@H]1c1ccccc1	17.9
O=C(Nc1cccnc1)C1CC(c2ccc(Cl)c(Cl)c2)=NO1 (stereo not drawn)	-18.7
Cc1cccc(N2C(=O)C3C4CC(C(Br)C4Br)C3C2=O)n1 (stereo not drawn)	15.3
COC(=O)c1ccc(Oc2cc(C)nc(SC)n2)cc1	4.12
COc1ccc(NC(=O)Cc2nnc(SCC(=O)Nc3ccccc3)n2C)cc1	20.6

Compound	hERG current change (%, negative = inhibition) at 10uM [%]
COC(=O)N/N=C/c1cn(Cc2ccccc2F)c2ccccc12	6.63
Cc1ccc(C)c(NC(=O)CN(C)C(=O)COc2ncnc3sccc23)c1	-6.59
O=C(NCc1ccc(Cl)cc1)c1cc2ccccn2n1	-28.8
CC(C)n1nc(C(=O)OCC(=O)N2CC(=O)Nc3ccccc32)c2ccccc2c1=O	-44.7
COc1ccc(Cn2nnnc2C(c2cc3cccc(C)c3[nH]c2=O)N2CCN(C)CC2)cc1 (stereo not drawn)	29.6
Cc1cc(C)c(NC(=O)COC(=O)C2CCCCC2)c(C)c1	4.87
O=C(Nc1ccc2c(c1)OCO2)C(=O)c1c[nH]c2ccccc12	22.3
C=Cc1c(C)c2cc3[nH]c(cc4nc(cc5nc(cc1[nH]2)C(C)=C5CCC(=O)O)C(CCC(=O)O)=C4C)c(C)c3C=C	17.7
CC(NC(N)=O)C12CC3CC(CC(C3)C1)C2 (stereo not drawn)	14.2
CCN1CCN(S(=O)(=O)c2cc(OC)ccc2OC)CC1	18.4
O=C(c1ccccc1)c1c[nH]c(C(=O)NCCCN2CCOCC2)c1	-19.4
CC(=O)NC(=S)Nc1ccc(NC(=S)NC(=O)/C=C/c2ccco2)cc1	16.4
COc1ccc(-n2c(SCC(=O)Nc3ccc(C(N)=O)cc3)nc3c([nH]c4ccccc43)c2=O)cc1OC	20.1
Cn1nc(-c2ccc(Cl)cc2)cc1NC(=O)Nc1ccccc1	5.81
Cc1nn(-c2ccc(Cl)cc2)c(NC(=O)C(C)C)c(-c2ccccc2)c1=O	10.5
Cc1[nH]c(C)c2c(=O)[nH]ncc12	16.6
O=C(N/N=C/c1ccc(N2CCOCC2)cc1)c1ccccc1NS(=O)(=O)c1cccs1	4.46
O=C(N/N=C/c1ccc(F)cc1)c1sccc1OCc1ccc(F)cc1	-3.12
COCCn1c(SCC(=O)Nc2ccc(OC)cc2)nc2c(oc3ccccc32)c1=O	-3.87
CC(C(=O)Nc1ccccc1-c1ccccc1)N1CCN(S(=O)(=O)c2ccccc2)CC1 (stereo not drawn)	-14.3
Cc1ccc(C)c(NC(=O)CSc2nnc(CCNC(=O)OC(C)(C)C)o2)c1	-12.3

Reference: article PMC4336329 (PLoS ONE, 2015)
